PubChem BioAssay (NCATS)
The shares of active, inactive and inconclusive entries below differ from those in the screen. For some assays here: Potencies of inconclusive entries are left out as doubtful fits. Calls of active or inactive are those of the source. Unless noted, calls follow the shape of the dose curve; as a rule, active = well fitted curve in the direction sought with a large enough effect; inconclusive = small, poorly fitted or top-dose-only effect, or another doubt; inactive = no such curve, though single readings can be large; an effect the other way counts as inactive or inconclusive. Where a SMILES comes first, the peptide text is derived from it. The star is where a group is joined. Cbz = O=C(OCc1ccccc1)*

Columns and labels:
[1] = qHTS of pediatric cancer cell lines to identify multiple opportunities for drug repurposing: Primary screen for A673 cells (AID 1347092); conditions: A673 Ewing sarcoma viability, CellTiter-Glo ATP luminescence, 48 h; activity change, negative = cytotoxic: at 46 µM (top of the series); also: nearly all actives have a fitted effect of over 45% in size; as to activity change, negative = cytotoxic: % is scaled to controls: 0 for no effect and ±100 for the full control effect
How it was run: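 Cells are plated, rested 5 h, dosed by pintool, incubated 48 h, then lysed with CellTiter-Glo and read by luminescence. DMSO is the neutral control; bortezomib at 2.3 uM final is the positive control.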

[2] = qHTS of pediatric cancer cell lines to identify multiple opportunities for drug repurposing: Primary screen for NB-EBc1 cells (AID 1347095);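 as to activity change, negative = cytotoxic: plate controls were DMSO neutral control for no effect and bortezomib for full effect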
How it was run: (§1)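 Cells seeded at 500-1,000 cells/well in growth media, rested 5 hours at 37 degrees C, 5% CO2, then dosed; MIPE compounds at 11-point (from 0.78 nM) and NPC at 8-point (from 0.59 nM) final concentrations. Viability by CellTiter-Glo luminescence after 48 hours.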

[3] = qHTS of pediatric cancer cell lines to identify multiple opportunities for drug repurposing: Primary screen for SK-N-SH cells (AID 1347098); also: nearly all actives have a fitted effect of over 65% in size;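 as to activity change, negative = cytotoxic: DMSO served as neutral control and bortezomib at 2.3 µM as positive control; % is scaled to controls: 0 for no effect and ±100 for the full control effect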
How it was run: (§2)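 Cells (500-1,000/well) rested 5 h, then received compounds for 48 h; metabolically active cells were measured by CellTiter-Glo luminescence. Final concentrations spanned up to 46 µM (MIPE, 11-point) or 0.59 nM-46 µM (NPC, 8-point) in primary screens, 11-point in follow-ups.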

[4] = qHTS of pediatric cancer cell lines to identify multiple opportunities for drug repurposing: Primary screen for Rh41 cells (AID 1347108); also: nearly all actives have a fitted effect of over 70% in size;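 as to activity change, negative = cytotoxic: luminescence drop marks cytotoxic hits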
How it was run: as §1

[5] = A High-Content qHTS Against Drug Library for the Identification of Small Molecules that Inhibit DYT1 Early Onset Primary Dystonia-Associated Cell Pathology (AID 1645839; calls by dose curve)
How it was run: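 Induced EGFP-delE TorsinA cells are imaged after 48 h of compound treatment. Punctate fusion-protein distribution gives the %pathology value, while nuclei counts flag toxicity. Wild-type EGFP-hTOR1A cells define the normal pattern.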

Es-2 = assay: Primary qHTS to identify gynecologic anti-cancer compounds using libraries of approved drugs and bioactive compounds (AID 1345084); conditions: Gynecologic cancer cell panel viability, ATPlite luminescence, 48 h; series mostly up to 57.5 µM; also: nearly all actives have a fitted effect of over 55% in size; as to activity change, negative = cytotoxicity: % is scaled to controls: 0 for no effect and ±100 for the full control effect
How it was run: (§3)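 Cells, 1,000 per well, plated 16 h, then exposed 48 h at 37 C to compounds. Viability by ATPlite luminescence after 15 min at room temperature.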

JEG-3 = assay: as above; conditions: Gynecologic cancer cell panel viability, ATPlite luminescence, 48 h; series mostly up to 57.5 µM
How it was run: as §3

[6] = qHTS of pediatric cancer cell lines to identify multiple opportunities for drug repurposing: Primary screen for BT-37 cells (AID 1347094);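 as to activity change, negative = cytotoxic: plate controls were DMSO for no effect and bortezomib for full effect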
How it was run: as §1

[7] = qHTS of pediatric cancer cell lines to identify multiple opportunities for drug repurposing: Primary screen for LAN-5 cells (AID 1347100);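 as to activity change, negative = cytotoxic: plate controls were DMSO neutral control for no effect and bortezomib positive control for full effect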
How it was run: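 Cells (500-1,000/well) in growth media were settled 5 h at 37 degrees C, then given compounds for 48 h. Viability was read as CellTiter-Glo luminescence. Primary runs used MIPE at 11 points (0.78 nM-46 µM) and NPC at 8 points (0.59 nM-46 µM); follow-ups used 11 points.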

[8] = qHTS of pediatric cancer cell lines to identify multiple opportunities for drug repurposing: Primary screen for BT-12 cells (AID 1347101); also: nearly all actives have a fitted effect of over 25% in size;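 as to activity change, negative = cytotoxic: plate controls were DMSO for no effect and bortezomib positive control for full effect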
How it was run: as §2

[9] = qHTS of pediatric cancer cell lines to identify multiple opportunities for drug repurposing: Primary screen for OHS-50 cells (AID 1347103); also: nearly all actives have a fitted effect of over 40% in size;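 as to activity change, negative = cytotoxic: plate controls were DMSO neutral control for no effect and bortezomib positive control for full effect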
How it was run: as §2

MKL-2 = assay: qHTS assay to identify novel small-molecules to repurpose for Merkel cell carcinoma treatment (AID 1296009); conditions: MCC and control cell lines, CellTiter-Glo viability, 72 h; activity change, negative = cytotoxicity: at 46 µM (top of the series); also: nearly all actives have a fitted effect of over 60% in size
How it was run: (§4)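 Luminescence from CellTiter-Glo, read 10 min after addition at room temperature, reported viability following a 72 hr, 37 degree celsius treatment with NPC or MIPE compounds in titration; values normalized to plate controls.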

[10] = qHTS of pediatric cancer cell lines to identify multiple opportunities for drug repurposing: Primary screen for DAOY cells (AID 1347090); conditions: DAOY medulloblastoma viability, CellTiter-Glo luminescence, 48 h; activity change, negative = cytotoxic: at 46 µM (top of the series); also: nearly all actives have a fitted effect of over 55% in size;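 as to activity change, negative = cytotoxic: plate controls were DMSO for no effect and bortezomib for full effect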
How it was run: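 Eight- or eleven-point concentration series, 48 h treatment at 37 degrees C in growth media; readout CellTiter-Glo luminescence. Potency and efficacy were taken from the concentration-response curves.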

[11] = qHTS of pediatric cancer cell lines to identify multiple opportunities for drug repurposing: Primary screen for RD cells (AID 1347104); conditions: RD rhabdomyosarcoma viability, CellTiter-Glo luminescence, 48 h; activity change, negative = cytotoxic: at 46 µM (top of the series); also: nearly all actives have a fitted effect of over 55% in size;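 as to activity change, negative = cytotoxic: plate controls were DMSO for no effect and bortezomib for full effect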
How it was run: as §1

Tov112D = assay: Primary qHTS to identify gynecologic anti-cancer compounds using libraries of approved drugs and bioactive compounds (AID 1345084); conditions: Gynecologic cancer cell panel viability, ATPlite luminescence, 48 h; series mostly up to 57.5 µM; also: nearly all actives have a fitted effect of over 55% in size; as to activity change, negative = cytotoxicity: % is scaled to controls: 0 for no effect and ±100 for the full control effect
How it was run: as §3

[12] = Primary redox qHTS assay for identification of artifact compounds. (AID 1845223); conditions: Amplex Red/HRP redox cycling with DTT, fluorescence; redox activity (% of DA3003): at 53.8 µM (top of the series);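 as to redox activity (% of DA3003): 0% = DMSO and 100% = reference compound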
How it was run: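 Redox-cycling detection via DTT (250 uM final) oxidation coupled to Amplex Red (25 uM)/HRP (250 mU/mL) in HBSS. 15 min preincubation plus 30 min after DTT, room temperature. Ex/Em 525/598 nm; 4-parameter Hill fit against DMSO and 10 uM DA3003.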

HeLa = assay: Primary qHTS to identify gynecologic anti-cancer compounds using libraries of approved drugs and bioactive compounds (AID 1345084); conditions: Gynecologic cancer cell panel viability, ATPlite luminescence, 48 h; activity change, negative = cytotoxicity: at 57.5 µM (top of the series); also: nearly all actives have a fitted effect of over 55% in size
How it was run: as §3

UISO = assay: qHTS assay to identify novel small-molecules to repurpose for Merkel cell carcinoma treatment (AID 1296009); conditions: MCC and control cell lines, CellTiter-Glo viability, 72 h; activity change, negative = cytotoxicity: at 46 µM (top of the series); also: nearly all actives have a fitted effect of over 60% in size
How it was run: as §4

WaGa = assay: as above; conditions: MCC and control cell lines, CellTiter-Glo viability, 72 h; series mostly up to 46 µM
How it was run: as §4
Potency is read from the fitted curve at half-maximal effect; tags tell the direction and shape of the fitted curve.

CCCCNc1ccc(C(=O)OCCN(CC)CC)cc1
Potency [1]: inactive
Potency [2]: inactive
Potency [3]: inactive
Potency [4]: inactive
Potency [5]: inconclusive [inhibitor, single point]

C1=C/COCc2cc(ccc2OCCN2CCCC2)Nc2nccc(n2)-c2cccc(c2)COC/1
Potency (Es-2): active: 14.1 µM
Potency (JEG-3): active: 11.2 µM

Nc1nc(N)c2nc(-c3cccc(O)c3)c(-c3cccc(O)c3)nc2n1
Potency [6]: active: 21.7 µM
Potency [2]: inconclusive [cytotoxic, partial curve]
Potency [7]: active: 11.8 µM
Potency [8]: active: 21.7 µM
Potency [9]: active: 19.3 µM
Potency [4]: inconclusive [cytotoxic, partial curve]
Potency (MKL-2): inconclusive [inhibitor, partial curve, poor fit]

C=C(C)C(=O)OC1CC2(C)OC(=CC2=O)C(=C)CC2OC(=O)C(COC)C12 (stereo unspecified)
Potency (Es-2): inconclusive [cytotoxic, single point]

CN/C(=C\[N+](=O)[O-])NCCSCc1ccc(CN(C)C)o1
Potency [10]: inactive
activity change, negative = cytotoxic [1]: inconclusive: -63.6%
Potency [7]: inactive
Potency [11]: inconclusive [cytotoxic, partial curve]
Potency [4]: inconclusive [cytotoxic, partial curve, poor fit]

Nc1ncnc2c1c(-c1ccc(Cl)cc1)nn2-c1cccc(-c2cnnn2Cc2cccc(-c3ccccc3)c2)c1
Potency (Es-2): inconclusive [cytotoxic, single point]

C[C@@H]1CCC2C(C)(C)[C@H](O)CC[C@]2(C)[C@@]12Cc1c(O)cc3c(c1O2)CN([C@@H](CCC(=O)O)C(=O)O)C3=O (stereo partly specified)
Potency (Tov112D): inactive

Cc1oc(-c2ccccc2)nc1CCC(=O)c1ccc(CC2SC(=O)NC2=O)cc1 (stereo unspecified)
Potency [10]: inconclusive [cytotoxic, partial curve]
Potency [1]: inactive
Potency [2]: inactive
Potency [3]: inactive
Potency [7]: inconclusive [cytotoxic, single point]
Potency [8]: inconclusive [cytotoxic, single point]
Potency [9]: inconclusive [cytotoxic, partial curve, poor fit]
Potency [5]: inconclusive [inhibitor, partial curve, poor fit]

C=CC1(C)C=C2CCC3C(C)(C)C(O[C@@H]4O[C@@H](CO)[C@H](O)[C@H]4O)CCC3(C)C2CC1O[C@@H]1O[C@H](C)[C@H](O)[C@H](O)[C@H]1O (stereo partly specified)
Potency (Tov112D): inactive

CC(=O)/C=C/C1(O)C(C)CC(O[C@@H]2O[C@H](CO)[C@@H](O)[C@H](O)[C@H]2O)CC1(C)C (stereo partly specified)
Potency [12]: inactive
Potency (JEG-3): inactive

COc1cc(O)cc(C)c1C(=O)O[C@@H]1[C@H](O)[C@@H](CO)O[C@H]1n1ccc(=O)[nH]c1=O
Potency [12]: inactive
Potency (Es-2): inconclusive [cytotoxic, partial curve, poor fit]

CN(C)CCN(Cc1ccsc1)c1ccccn1
Potency [2]: inconclusive [cytotoxic, full curve]

Cc1cccc(C)c1NC(=O)CC12CCCN1CCC2
Potency [8]: inactive
Potency [9]: inactive
Potency [11]: inactive

CC1(C)CC[C@]2(C(=O)O[C@@H]3O[C@H](CO)[C@@H](O)[C@H](O)[C@H]3O)CC[C@]3(C)C(=CCC4[C@@]5(C)CC[C@H](O[C@@H]6O[C@H](C(=O)O)[C@H](O)[C@H](O)[C@H]6O)C(C)(C)C5CC[C@]43C)[C@@H]2C1 (stereo partly specified)
Potency [12]: inconclusive [activator, partial curve]

O=C(NCC(=O)N1CC[C@H](NC2CCC(O)(c3ccc(-c4ncccn4)cn3)CC2)C1)c1cccc(C(F)(F)F)c1 (stereo partly specified)
Potency (Tov112D): inactive

C=CC(C)(C)c1[nH]c2cc3c(cc2c1CC1NC(=O)C2=CCCN2C1=O)C=CC(C)(C)O3 (stereo unspecified)
Potency (Es-2): inconclusive [cytotoxic, single point]

CC(O)COc1ccccc1 (stereo unspecified)
Potency [10]: inconclusive [cytotoxic, single point]
Potency [6]: inconclusive [cytotoxic, single point]
Potency [4]: inconclusive [cytotoxic, single point]
Potency [5]: inactive

CC(=O)OC/C=C(\C)C(CC1C(C)=C(OC(C)=O)C(=O)C2C(C)(C)C(O)CCC12C)OC(C)=O (stereo unspecified)
Potency [12]: inconclusive [activator, partial curve, poor fit]

CCCCOc1nc(N)c2c(n1)N(Cc1cccc(CN3CCCC3)c1)CC(=O)N2
Potency [12]: inconclusive [activator, single point]

CCS(=O)(=O)c1cccc(-c2cc(C(=O)NC3CCN(C)CC3)c(C)c3[nH]c4ncc(C)cc4c23)c1
Potency [10]: active: 14.8 µM
Potency [1]: active: 0.743 µM
Potency [11]: active: 2.64 µM
Potency [4]: active: 1.32 µM
Potency (HeLa): active: 1.58 µM
Potency (JEG-3): active: 8.91 µM
Potency (Tov112D): active: 2 µM
Potency (UISO): active: 2.35 µM
Potency (WaGa): inconclusive [inhibitor, full curve]

C[C@H](N)[C@H](O)c1cccc(O)c1
Potency [10]: inactive
Potency [6]: inactive
Potency [7]: inactive

CC[C@H](C(=O)Nc1ccccc1N1CCCC1)c1ccccc1
Potency (Es-2): inconclusive [cytotoxic, single point]
Potency (HeLa): inconclusive [cytotoxic, single point]

CC(C)C[C@@H](C=O)NC(=O)[C@H](CC(C)C)NC(=O)[C@H](CC(C)C)NC(=O)OCc1ccccc1 (Cbz-Leu-Leu-Leu-aldehyde)
Potency [1]: active: 0.235 µM
Potency [2]: active: 0.166 µM
Potency [3]: active: 0.857 µM
Potency [7]: active: 0.662 µM
Potency [8]: active: 1.53 µM
Potency (MKL-2): active: 0.743 µM

Cc1nc([C@](C)(O)CO)sc1-c1cnc(N)c(O[C@H](C)c2cc(F)ccc2-n2nccn2)c1
Potency [12]: inconclusive [activator, partial curve, poor fit]
Potency (HeLa): active: 8.91 µM

O=C(O)c1ccncc1Nc1nn(CCN2CCC(F)(F)CC2)c2ccc(F)cc12
Potency (HeLa): inactive
